# Some of the results follow.
# Key:
# Test in all cases: glycan array binding signal (z-score within array); higher = stronger binding
# Settings in all cases: glycan notation: IUPAC condensed, linker removed
# GlcNAc(b1-3)Gal(b1-4)Glc = molecular target: GlcNAc(b1-3)Gal(b1-4)Glc
# How it was run: (§1)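 The binding signal is a Z-score computed within each array and averaged over linkers. Arrays of the same protein sequence at different concentrations or buffers were also averaged together. Data originate from 3228 arrays in the Consortium for Functional Glycomics database, kept only where the protein sequence was available.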
# [1] = molecular target: GlcNAc(b1-3)Gal(b1-4)GlcNAc
# How it was run: as §1
# [2] = molecular target: GlcNAc(b1-3)Gal(b1-4)GlcNAc(b1-2)Man(a1-3)[GlcNAc(b1-3)Gal(b1-4)GlcNAc(b1-2)Man(a1-6)]Man(b1-4)GlcNAc(b1-4)GlcNAc
# How it was run: as §1
# [3] = molecular target: GlcNAc(b1-3)Gal(b1-4)GlcNAc(b1-2)Man(a1-3)[GlcNAc(b1-3)Gal(b1-4)GlcNAc(b1-2)Man(a1-6)]Man(b1-4)GlcNAc(b1-4)[Fuc(a1-6)]GlcNAc
# How it was run: as §1
# [4] = molecular target: GlcNAc(b1-3)Gal(b1-4)GlcNAc(b1-2)[GlcNAc(b1-3)Gal(b1-4)GlcNAc(b1-6)]Man(a1-6)[GlcNAc(b1-3)Gal(b1-4)GlcNAc(b1-2)Man(a1-3)]Man(b1-4)GlcNAc(b1-4)GlcNAc
# How it was run: as §1
# [5] = molecular target: GlcNAc(b1-3)Gal(b1-4)GlcNAc(b1-3)Gal(b1-4)GlcNAc
# How it was run: as §1
# [6] = molecular target: GlcNAc(b1-3)Gal(b1-4)GlcNAc(b1-3)Gal(b1-4)GlcNAc(b1-2)Man(a1-3)[GlcNAc(b1-3)Gal(b1-4)GlcNAc(b1-3)Gal(b1-4)GlcNAc(b1-2)Man(a1-6)]Man(b1-4)GlcNAc(b1-4)GlcNAc
# How it was run: as §1
# [7] = molecular target: GlcNAc(b1-3)Gal(b1-4)GlcNAc(b1-3)Gal(b1-4)GlcNAc(b1-2)Man(a1-3)[GlcNAc(b1-3)Gal(b1-4)GlcNAc(b1-3)Gal(b1-4)GlcNAc(b1-2)Man(a1-6)]Man(b1-4)GlcNAc(b1-4)[Fuc(a1-6)]GlcNAc
# How it was run: as §1
# [8] = molecular target: GlcNAc(b1-3)Gal(b1-4)GlcNAc(b1-3)Gal(b1-4)GlcNAc(b1-2)[GlcNAc(b1-3)Gal(b1-4)GlcNAc(b1-3)Gal(b1-4)GlcNAc(b1-6)]Man(a1-6)[GlcNAc(b1-3)Gal(b1-4)GlcNAc(b1-3)Gal(b1-4)GlcNAc(b1-2)Man(a1-3)]Man(b1-4)GlcNAc(b1-4)[Fuc(a1-6)]GlcNAc
# How it was run: as §1
# [9] = molecular target: GlcNAc(b1-3)Gal(b1-4)GlcNAc(b1-3)Gal(b1-4)GlcNAc(b1-3)Gal(b1-4)GlcNAc(b1-2)Man(a1-3)[GlcNAc(b1-3)Gal(b1-4)GlcNAc(b1-3)Gal(b1-4)GlcNAc(b1-3)Gal(b1-4)GlcNAc(b1-2)Man(a1-6)]Man(b1-4)GlcNAc(b1-4)GlcNAc
# How it was run: as §1
# [10] = molecular target: GlcNAc(b1-3)Gal(b1-4)GlcNAc(b1-3)Gal(b1-4)GlcNAc(b1-3)Gal(b1-4)GlcNAc(b1-2)Man(a1-3)[GlcNAc(b1-3)Gal(b1-4)GlcNAc(b1-3)Gal(b1-4)GlcNAc(b1-3)Gal(b1-4)GlcNAc(b1-2)Man(a1-6)]Man(b1-4)GlcNAc(b1-4)[Fuc(a1-6)]GlcNAc
# How it was run: as §1
# [11] = molecular target: GlcNAc(b1-3)Gal(b1-4)GlcNAc(b1-3)Gal(b1-4)GlcNAc(b1-3)Gal(b1-4)GlcNAc(b1-2)[GlcNAc(b1-3)Gal(b1-4)GlcNAc(b1-3)Gal(b1-4)GlcNAc(b1-3)Gal(b1-4)GlcNAc(b1-6)]Man(a1-6)[GlcNAc(b1-3)Gal(b1-4)GlcNAc(b1-3)Gal(b1-4)GlcNAc(b1-3)Gal(b1-4)GlcNAc(b1-2)Man(a1-3)]Man(b1-4)GlcNAc(b1-4)[Fuc(a1-6)]GlcNAc
# How it was run: as §1
# [12] = molecular target: GlcNAc(b1-3)Gal(b1-4)GlcNAc(b1-3)Gal(b1-4)GlcNAc(b1-3)Gal(b1-4)GlcNAc(b1-3)Gal(b1-4)GlcNAc(b1-2)Man(a1-3)[GlcNAc(b1-3)Gal(b1-4)GlcNAc(b1-3)Gal(b1-4)GlcNAc(b1-3)Gal(b1-4)GlcNAc(b1-3)Gal(b1-4)GlcNAc(b1-2)Man(a1-6)]Man(b1-4)GlcNAc(b1-4)GlcNAc
# How it was run: as §1
# [13] = molecular target: GlcNAc(b1-3)Gal(b1-4)GlcNAc(b1-3)Gal(b1-4)GlcNAc(b1-3)Gal(b1-4)GlcNAc(b1-3)Gal(b1-4)GlcNAc(b1-2)Man(a1-3)[GlcNAc(b1-3)Gal(b1-4)GlcNAc(b1-3)Gal(b1-4)GlcNAc(b1-3)Gal(b1-4)GlcNAc(b1-3)Gal(b1-4)GlcNAc(b1-2)Man(a1-6)]Man(b1-4)GlcNAc(b1-4)[Fuc(a1-6)]GlcNAc
# How it was run: as §1
# [14] = molecular target: GlcNAc(b1-3)Gal(b1-4)GlcNAc(b1-3)Gal(b1-4)GlcNAc(b1-3)Gal(b1-4)GlcNAc(b1-3)Gal(b1-4)GlcNAc(b1-2)[GlcNAc(b1-3)Gal(b1-4)GlcNAc(b1-3)Gal(b1-4)GlcNAc(b1-3)Gal(b1-4)GlcNAc(b1-3)Gal(b1-4)GlcNAc(b1-6)]Man(a1-6)[GlcNAc(b1-3)Gal(b1-4)GlcNAc(b1-3)Gal(b1-4)GlcNAc(b1-3)Gal(b1-4)GlcNAc(b1-3)Gal(b1-4)GlcNAc(b1-2)Man(a1-3)]Man(b1-4)GlcNAc(b1-4)[Fuc(a1-6)]GlcNAc
# How it was run: as §1
# [15] = molecular target: GlcNAc(b1-3)Gal(b1-4)GlcNAc(b1-3)Gal(b1-4)GlcNAc(b1-3)GalNAc
# How it was run: as §1
# [16] = molecular target: GlcNAc(b1-3)Gal(b1-4)GlcNAc(b1-3)GalNAc
# How it was run: as §1
# [17] = molecular target: GlcNAc(b1-3)Gal(b1-4)GlcNAc(b1-3)[GlcNAc(b1-3)Gal(b1-4)GlcNAc(b1-3)]GalNAc
# How it was run: as §1
# [18] = molecular target: GlcNAc(b1-3)Gal(b1-4)GlcNAc(b1-6)[Gal(b1-3)]GalNAc
# How it was run: as §1
# [19] = molecular target: GlcNAc(b1-3)Gal(b1-4)GlcNAc(b1-6)[GlcNAc(b1-3)Gal(b1-3)]GalNAc
# How it was run: as §1
# [20] = molecular target: GlcNAc(b1-3)Gal(b1-4)GlcNAc(b1-6)[GlcNAc(b1-3)]Gal(b1-4)GlcNAc
# How it was run: as §1
# GlcNAc(b1-3)GalNAc = molecular target: GlcNAc(b1-3)GalNAc
# How it was run: as §1
# GlcNAc(b1-3)Man = molecular target: GlcNAc(b1-3)Man
# How it was run: as §1
# [21] = molecular target: GlcNAc(b1-3)[GlcNAc(b1-4)][GlcNAc(b1-6)]GlcNAc
# How it was run: as §1
# [22] = molecular target: GlcNAc(b1-3)[GlcNAc(b1-6)]Gal(b1-4)GlcNAc
# How it was run: as §1
# [23] = molecular target: GlcNAc(b1-3)[GlcNAc(b1-6)]GalNAc
# How it was run: as §1
# [24] = molecular target: GlcNAc(b1-4)Gal(b1-4)GlcNAc
# How it was run: as §1
# GlcNAc(b1-4)GlcNAc = molecular target: GlcNAc(b1-4)GlcNAc
# How it was run: as §1
# [25] = molecular target: GlcNAc(b1-4)GlcNAc(b1-4)GlcNAc
# How it was run: as §1
# [26] = molecular target: GlcNAc(b1-4)GlcNAc(b1-4)GlcNAc(b1-4)GlcNAc(b1-4)GlcNAc
# How it was run: as §1
# [27] = molecular target: GlcNAc(b1-4)GlcNAc(b1-4)GlcNAc(b1-4)GlcNAc(b1-4)GlcNAc(b1-4)GlcNAc
# How it was run: as §1
# [28] = molecular target: GlcNAc(b1-4)[GlcNAc(b1-6)]GalNAc
# How it was run: as §1
# [29] = molecular target: GlcNAc(b1-6)Gal(b1-4)GlcNAc
# How it was run: as §1
# GlcNAc(b1-6)GalNAc = molecular target: GlcNAc(b1-6)GalNAc
# How it was run: as §1
# [30] = molecular target: GlcNAc6S(b1-3)Gal(b1-4)GlcNAc
# How it was run: as §1
# Kdn(a2-3)Gal(b1-3)GalNAc = molecular target: Kdn(a2-3)Gal(b1-3)GalNAc
# How it was run: as §1
# Kdn(a2-3)Gal(b1-3)GlcNAc = molecular target: Kdn(a2-3)Gal(b1-3)GlcNAc
# How it was run: as §1
# Kdn(a2-3)Gal(b1-4)Glc = molecular target: Kdn(a2-3)Gal(b1-4)Glc
# How it was run: as §1
# Kdn(a2-3)Gal(b1-4)GlcNAc = molecular target: Kdn(a2-3)Gal(b1-4)GlcNAc
# How it was run: as §1
# [31] = molecular target: Kdn(a2-3)Gal(b1-4)[Fuc(a1-3)]GlcNAc
# How it was run: as §1
# Kdn(a2-6)Gal(b1-4)GlcNAc = molecular target: Kdn(a2-6)Gal(b1-4)GlcNAc
# How it was run: as §1
# [32] = molecular target: Man(a1-2)Man(a1-2)Man(a1-3)Man
# How it was run: as §1
# [33] = molecular target: Man(a1-2)Man(a1-2)Man(a1-6)[Man(a1-3)]Man
# How it was run: as §1
# Man(a1-2)Man(a1-3)Man = molecular target: Man(a1-2)Man(a1-3)Man
# How it was run: as §1
# [34] = molecular target: Man(a1-2)Man(a1-3)[Man(a1-2)Man(a1-6)]Man
# How it was run: as §1
binder,measurement,setting,value
GNL (Galanthus nivalis) (protein) MGHHHHHHHHYGTLENGHWLMVGMSIFSKDRTVELRMQDDGKLAIYYNDHCAWQSTAQQVNNAKGAVMQGDGNFCIYDKNGKATWHTNTAAPSGDSHTFVSVQDDGNLVLYKNNGATPIWSSKSNK,glycan array binding signal (z-score),GlcNAc(b1-3)Gal(b1-4)Glc,-0.193
same,glycan array binding signal (z-score),[1],-0.226
same,glycan array binding signal (z-score),[2],0.679
same,glycan array binding signal (z-score),[3],1.94
same,glycan array binding signal (z-score),[4],-0.156
same,glycan array binding signal (z-score),[5],-0.173
same,glycan array binding signal (z-score),[6],0.148
same,glycan array binding signal (z-score),[7],0.898
same,glycan array binding signal (z-score),[8],-0.103
same,glycan array binding signal (z-score),[9],0.13
same,glycan array binding signal (z-score),[10],0.37
same,glycan array binding signal (z-score),[11],-0.147
same,glycan array binding signal (z-score),[12],-0.009
same,glycan array binding signal (z-score),[13],0.067
same,glycan array binding signal (z-score),[14],-0.12
same,glycan array binding signal (z-score),[15],-0.245
same,glycan array binding signal (z-score),[16],-0.013
same,glycan array binding signal (z-score),[17],-0.182
same,glycan array binding signal (z-score),[18],-0.216
same,glycan array binding signal (z-score),[19],-0.125
same,glycan array binding signal (z-score),[20],-0.255
same,glycan array binding signal (z-score),GlcNAc(b1-3)GalNAc,-0.174
same,glycan array binding signal (z-score),GlcNAc(b1-3)Man,-0.202
same,glycan array binding signal (z-score),[21],-0.102
same,glycan array binding signal (z-score),[22],-0.188
same,glycan array binding signal (z-score),[23],-0.224
same,glycan array binding signal (z-score),[24],-0.245
same,glycan array binding signal (z-score),GlcNAc(b1-4)GlcNAc,-0.202
same,glycan array binding signal (z-score),[25],-0.258
same,glycan array binding signal (z-score),[26],-0.122
same,glycan array binding signal (z-score),[27],-0.24
same,glycan array binding signal (z-score),[28],-0.138
same,glycan array binding signal (z-score),[29],-0.16
same,glycan array binding signal (z-score),GlcNAc(b1-6)GalNAc,-0.208
same,glycan array binding signal (z-score),[30],-0.28
same,glycan array binding signal (z-score),Kdn(a2-3)Gal(b1-3)GalNAc,-0.131
same,glycan array binding signal (z-score),Kdn(a2-3)Gal(b1-3)GlcNAc,-0.225
same,glycan array binding signal (z-score),Kdn(a2-3)Gal(b1-4)Glc,-0.171
same,glycan array binding signal (z-score),Kdn(a2-3)Gal(b1-4)GlcNAc,-0.152
same,glycan array binding signal (z-score),[31],-0.233
same,glycan array binding signal (z-score),Kdn(a2-6)Gal(b1-4)GlcNAc,-0.17
same,glycan array binding signal (z-score),[32],-0.3
same,glycan array binding signal (z-score),[33],-0.206
same,glycan array binding signal (z-score),Man(a1-2)Man(a1-3)Man,-0.18
same,glycan array binding signal (z-score),[34],-0.244

# From the supplement of paper PMC8728848
